Data on 14 molecules can be found in publication PMC12136788.

The list shows a part of the results.

The labels stand for the following.
T1: UNK ZnF1-6 (called full-length) (human, UniProt Q9C0B0 30-357)
T1 sequence: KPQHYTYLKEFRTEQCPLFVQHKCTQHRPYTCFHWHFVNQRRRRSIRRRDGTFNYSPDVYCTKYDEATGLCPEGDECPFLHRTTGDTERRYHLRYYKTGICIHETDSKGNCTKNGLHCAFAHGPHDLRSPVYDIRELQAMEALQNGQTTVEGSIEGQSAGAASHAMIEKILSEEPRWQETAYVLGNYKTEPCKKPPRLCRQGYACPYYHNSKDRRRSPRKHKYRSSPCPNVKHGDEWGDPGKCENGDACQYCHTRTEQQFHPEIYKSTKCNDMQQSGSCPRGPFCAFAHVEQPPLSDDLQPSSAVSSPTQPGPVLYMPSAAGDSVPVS

B1: chrX:23682378:23682503:+|CDS|ENSG00000123131|unk|FALSE|unique (ssRNA)
RNA: GGGAGUUCUACAGUCCGACGAUCUUCAUUAUUGAUGACAAAGGAAUCCUAAGACAAAUUACUCUGAAUGAUCUUCCUGUGGGUAGAUCAGUGGAUGAGACACUACGUUUGGUUCAAGCAUUCCAGUACACUGACAAACACGGACAACAGAGGAUUGAGCAUCA
B2: chr8:120459219:120459329:+|CDS|ENSG00000172167|unk|FALSE|unique (ssRNA)
RNA: GGGAGUUCUACAGUCCGACGAUCUUUGGAUUUGAAAUUAGUUUUCCUGAAUUUUGUUUAAAGGGAGUCACACUUAAGAAUUUUAGUACUUCUAAUUUAAAUACUGACUUCCUUGCCAAAAAGAUCAUACCAUCAAAGGAUAAGCAACAGAGGAUUGAGCAUCA
B3: chr17:67854386:67854487:+|CDS|ENSG00000171634|unk|FALSE|unique (ssRNA)
RNA: GGGAGUUCUACAGUCCGACGAUCAGAGGCAGAGGACUACCCAUAUGGACCAGUAGAGAACAAGAUCAAAGUUCUACAGUUUCUAGUCGAUCAGUUUCUUACAACAAAUAUUGCUCGAGAGGAAUUGAUGUCUGAAGGGGUGAUCAACAGAGGAUUGAGCAUCA
B4: chr13:24435276:24435388:-|CDS|ENSG00000102699|unk|total|mutant (ssRNA)
RNA: GGGAGUUCUACAGUCCGACGAUCCAAAAGAAAAAUGGAAUUAUCUCAGCCAGAAGUUUCUGAAGAUUUUGAAGAGGAUGGCUCCGGUGUACUACCAGCUUUCACAUCAAAUUUGGAACGUGGAGGUGUGGAAAAGCUAUUGGACAACAGAGGAUUGAGCAUCA
B5: chr8:41263181:41263319:-|3pUTR|ENSG00000104332|msi1|FALSE|unique (ssRNA)
RNA: GGGAGUUCUACAGUCCGACGAUCCUUAAGUGAUUUGCCUGUAAUUUUGGAUGAUUAAAAAAUGUGUAUAUAUAUUAGCUAAUUAGAAAUAUUCUACUUCUCUGUUGUCAAACUGAAAUUCAGAGCAAGUUCCUGAGUGCGUGGCAACAGAGGAUUGAGCAUCA
B6: chr22:36281740:36281783:-|3pUTR|ENSG00000100345|msi1_unk|total|mutant (ssRNA)
RNA: GGGAGUUCUACAGUCCGACGAUCUCUGACAGCCAGAGCGUCCGAGGGGCCAGCGGCCCUCCCAGGCGAUCUUGUGUCUACUCCCGGACUGGGCCCGAGGGUGGUUUACCUGCACCGUUGACUCAGUACCGUUUAAAAAUCUGCCAACAGAGGAUUGAGCAUCA
B7: chr19:582815:582998:+|CDS_3pUTR|ENSG00000172270|msi1_unk|total|mutant (ssRNA)
RNA: GGGAGUUCUACAGUCCGACGAUCUCAUACACUUCCUUCUUUUUUAAAAAAGUUGGGUUUUCUCCAUUCAGGAUUCUGUUCCUCCGGUUUUUUUCCUUCUGAAGUGUUUCACGAGAGCCCGGGAGCUGCUGCCCUGCGGCCCCGCAACAGAGGAUUGAGCAUCA
B8: chr17:29548703:29548809:+|3pUTR|ENSG00000160551|unk|FALSE|bound_elsewhere (ssRNA)
RNA: GGGAGUUCUACAGUCCGACGAUCAGCACUUGUGAGUGAAAAAUCAUGUAAUUAUCUGUAAAUAUGUAGCUAACAAAUUGACCUAGUUUCUGUAUUUUUUUGUUUUUGUACUAAAGUUUAUAGGUCUGUGCCAGCUAGAGAGAACAACAGAGGAUUGAGCAUCA
B9: chr7:6691352:6691453:-|CDS|ENSG00000164631|unk|total|mutant (ssRNA)
RNA: GGGAGUUCUACAGUCCGACGAUCUACGAAUGUAAUGAAUGUGGAAAGUUAUUCUCCCAGUUGUCAUACCUCACUAUCCAUCACCGAACUCAUUCAGGAGUAAAACCCUAUGAAUGCCGUGAAUGUGGGAAAACCUUCUACCAGCAACAGAGGAUUGAGCAUCA
B10: chr1:166069298:166070240:-|three_prime_utr|ENSG00000188859|control|control|control (ssRNA)
RNA: GGGAGUUCUACAGUCCGACGAUCAGUUUCUGAGCCAAAGCAGACCUCUCGGUUUGCCAGCCUUUGCAGCCACUUUUGAAGAGUAGGGCUGCUCCUUGGGUGGUAGAACCAUAAUCCUUAGGAAAAAUCCCUUCCUCUUAGGAACAACAGAGGAUUGAGCAUCA
B11: chr3:31636526:31636632:+|3pUTR|ENSG00000163527|unk|FALSE|unique (ssRNA)
RNA: GGGAGUUCUACAGUCCGACGAUCCAAAAUGUGAUGAGAGCUUCUUGAACCGGUAAACUAGUACAGGUCUGAGAAAGACAUAUUAGAAGAAUCAUUAUACUUCCUUGAAUUAUAUUUAUUUUCAUGUUUCUCUAAUGCAAAGAACAACAGAGGAUUGAGCAUCA
B12: chr15:74955373:74955475:-|3pUTR|ENSG00000178718|unk|FALSE|unique (ssRNA)
RNA: GGGAGUUCUACAGUCCGACGAUCGGACAGUUUUCCUUUCUAGUUUUCUUUCCCCUGCUUCAGAGGAGCAUCUCUGAGGGUUCUAGCUCUUUUAACACCCCUUUUCCCCCUGCUGGCCCAGAGGGAGACCCAGGACUGAACUCUCAACAGAGGAUUGAGCAUCA
B13: chr5:43295829:43295944:-|CDS|ENSG00000112972|unk|total|mutant (ssRNA)
RNA: GGGAGUUCUACAGUCCGACGAUCAAUAUCCCCGCUUUAUUCUAAAGUCAAACUUUAAAAUUUCAUGGCUUAUAUGAAUUUCACCGUUUCCUUGGACUUCUCUUUCAGAGGGAAAUGAUAAAGAUUUUACCUUGAAUGAUUUUGCAACAGAGGAUUGAGCAUCA
B14: chr2:135782819:135782876:+|CDS|ENSG00000144224|msi1_unk|FALSE|overlapping (ssRNA)
RNA: GGGAGUUCUACAGUCCGACGAUCGUGAGAAAAAGAGUGCUGGAAAAACGUGGAGACGACUUUAAAAAGGAGGGGAAAAUUUAUAGAUUAAGGACUCAAGAUGAUGGUGAAGAUGAAAACAACACUUGGAAUGGAAAUUCCACUCAACAGAGGAUUGAGCAUCA

In the experiment the target is T1, UNK ZnF1-6 (called full-length). The experiment can be described thus: nsRBNS (natural sequence RNA bind-n-seq); RBNS binding buffer (assumed for nsRBNS): 25 mM Tris pH 7.5, 150 mM KCl, 3 mM MgCl2, 0.01% Triton X-100, 500 ug/ml BSA, 20 U/ml SUPERase-In, 4 C; UNK is unkempt and MSI1 is Musashi-1; names of the RNAs are library labels; protein concentration not given here; high values mean tight binding.
B1 returned a binding signal of 0.372 enrichment R.
Under B2 stands 1.46 enrichment R; under B3, 0.697 enrichment R.
Under B4 stands 0.555 enrichment R; under B5, 3.58 enrichment R.
Under B6 stands 0.55 enrichment R; under B7, 0.504 enrichment R; under B8, 6.33 enrichment R.
B9 gave a binding signal of 0.356 enrichment R.
The molecule B10 showed a binding signal of 0.582 enrichment R.
Under B11 stands 1.21 enrichment R; under B12, 10.8 enrichment R.
Turning to B13, the binding signal was determined as 0.421 enrichment R.
In the case of B14, the binding signal came out at 0.905 enrichment R.
